Hit rate of the full screen: of about 270,000 compounds, about 620 (0.23%) were called active. Inconclusive means that the source gave no clear call. Such entries were picked first, then a sample of the others. Calls come from the whole dose curve; as a rule, active = well fitted inhibition curve with a large enough effect in the polarisation, with a control signal flat (not every such curve was filed as active); inconclusive = small, poorly fitted or top-dose-only effect, or effect the other way, or a change in a side signal; inactive = no such curve, though single readings can be large or run the other way; the % refers to the polarisation. A potency beside an inconclusive call is a rough fit, not a confirmed value. A note “side channel” means that the fit belongs to a control or component signal, not to the main read-out.
Target: Menin (Homo sapiens) (UniProt O00255)
Test: qHTS Assay for Inhibitors Targeting the Menin-MLL Interaction in MLL Related Leukemias: Competition With Texas Red Labeled MLL-derived Mutant Peptide
Conditions: fluorescence polarization; series mostly up to 61.6 µM
Potency is the fitted concentration of half-maximal effect; tags give direction and shape of the fitted curve or compound fluorescence and quenching.

UniProt O00255, sequence (O00255 whole entry, looked up): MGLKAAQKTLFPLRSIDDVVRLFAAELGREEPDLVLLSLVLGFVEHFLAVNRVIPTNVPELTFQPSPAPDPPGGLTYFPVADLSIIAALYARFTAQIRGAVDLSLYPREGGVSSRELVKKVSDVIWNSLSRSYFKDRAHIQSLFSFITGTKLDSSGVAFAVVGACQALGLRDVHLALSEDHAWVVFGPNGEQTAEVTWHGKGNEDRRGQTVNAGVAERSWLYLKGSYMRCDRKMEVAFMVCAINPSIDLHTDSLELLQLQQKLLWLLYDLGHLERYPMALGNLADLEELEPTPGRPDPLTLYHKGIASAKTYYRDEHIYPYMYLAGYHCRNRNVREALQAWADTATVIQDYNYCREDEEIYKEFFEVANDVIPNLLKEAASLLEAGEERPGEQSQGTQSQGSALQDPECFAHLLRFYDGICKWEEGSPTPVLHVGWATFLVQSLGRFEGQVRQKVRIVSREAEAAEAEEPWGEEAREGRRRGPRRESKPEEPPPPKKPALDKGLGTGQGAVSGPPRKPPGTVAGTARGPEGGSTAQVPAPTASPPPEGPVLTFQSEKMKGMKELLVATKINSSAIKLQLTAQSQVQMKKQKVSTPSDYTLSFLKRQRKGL

Compound | Potency
CCCCOc1ccc(NC(=O)Nc2nnc(C)s2)cc1 | inconclusive: 39.8 µM [fluorescent, side channel, single point]
Cc1nc(N=Nc2cc([N+](=O)[O-])ccc2Cl)c(COP(=O)(O)O)c(C=O)c1O | inconclusive: 31.6 µM [quencher, single point]
CC(=O)c1cccc(NS(=O)(=O)N(C)C)c1 | inactive
CCOC(=O)C(Nc1ccc2ccccc2c1)C(=O)OCC | inconclusive: 2 µM [quencher, side channel, partial curve]
CS(=O)(=O)Nc1ccccc1C(=O)Nc1cc(Cl)cc(Cl)c1 | inconclusive: 28.2 µM [quencher, side channel, partial curve]
COc1ccc(C[C@H]2CN3C(=NC[C@@H]3C(C)C)N2C[C@H](C)NC(=O)c2ccc(C)c(Br)c2)cc1 | inconclusive: 7.94 µM [fluorescent, side channel, full curve]
C=CCC1(N(C(C)=O)c2ccccc2)CCCCC1 | inconclusive: 11.2 µM [fluorescent, side channel, partial curve]
Cc1cc(C)n(CCCN2CCC(C(=O)Nc3cccc(-c4cccc(F)c4)c3)CC2)n1 | inconclusive: 4.47 µM [inhibitor, full curve, poor fit]
CCCCC[n+]1ccn(-c2nc3ccccc3nc2[N-]S(=O)(=O)c2ccc(C)cc2)c1 | inconclusive: 1.58 µM [fluorescent, side channel, full curve, poor fit]
Cc1cccc(OCC(=O)NC(Cc2c[nH]c3ccccc23)C(=O)O)c1C (configuration not stated) | inconclusive: 11.2 µM [quencher, side channel, partial curve]
C=CCOn1c(=O)c(-c2ccc(Cl)cc2)[n+]([O-])c2ccccc21 | inconclusive: 35.5 µM [fluorescent, side channel, single point]
O=C(Nc1cccc(Cl)c1)Nc1ccc(Br)cc1F | inconclusive: 28.2 µM [quencher, side channel, single point]
O=C(/C=C/c1ccccc1)Nc1ccc2c(c1)OCCO2 | inconclusive: 20 µM [quencher, side channel, partial curve]
Cc1cc(C(C)(C)C)oc1C(=O)N(CC(=O)NC1CCCC1)Cc1ccc(Cl)cc1 | inconclusive: 12.6 µM [fluorescent, side channel, partial curve]
Cc1ccc(NNC2CC(=O)N(c3cccc(Cl)c3)C2=O)cc1 (configuration not stated) | inconclusive: 25.1 µM [quencher, side channel, partial curve]
CCOc1ccccc1N(C(=O)c1ccco1)C(C(=O)NC1CCCC1)c1cccnc1 (configuration not stated) | inconclusive: 39.8 µM [inhibitor, single point]
COc1ccc(/C=N/c2c(-c3ccco3)nc3ccccn23)cc1OC | inconclusive: 39.8 µM [inhibitor, single point]
CCOc1cc(N2CCOCC2)c(OCC)cc1NC(=O)CC12CC3CC(CC(C3)C1)C2 | inconclusive: 1.41 µM [fluorescent, side channel, full curve, poor fit]
COCCN(CCOc1cc(C)cc(C)c1)Cc1ccc(Cl)cc1 | inconclusive: 14.1 µM [fluorescent, side channel, partial curve]

Compound | Potency
COc1cc(C(=O)OCC(=O)N2CC(C)OC(C)C2)cc(OC)c1OC (configuration not stated) | inactive
CCOC(=O)C1(CC2CCCCO2)CCN(Cc2nccn2-c2ccc(OC)cc2)CC1 (configuration not stated) | inconclusive: 8.91 µM [fluorescent, side channel, partial curve]
Cc1ccc(S(=O)(=O)NCCC(=O)Nc2nccs2)cc1 | inconclusive: 39.8 µM [fluorescent, side channel, single point]
O=C(c1cc2cc(F)ccc2[nH]1)N1CCC(Cc2ccccc2)CC1 | inconclusive: 10 µM [fluorescent, side channel, partial curve]
COc1cccc(/C=N/NC(=O)C(=O)N2CCCC2)c1O | inconclusive: 3.16 µM [inhibitor, partial curve]
Cc1ccc(Cn2ccc(NC(=O)c3cc(-c4ccc5c(c4)OCO5)on3)n2)cc1 | inconclusive: 5.01 µM [inhibitor, full curve]
O=C(Cc1ccc(S(=O)(=O)N2CCCCC2)s1)Nc1ccc(F)c(F)c1 | inconclusive: 14.1 µM [quencher, side channel, partial curve]
COCCN=c1scc(-c2ccco2)n1/N=C/c1ccc(O)c(O)c1O | inconclusive: 14.1 µM [quencher, side channel, partial curve]
Nc1sc(-c2ccccc2)cc1C(=O)O | inconclusive: 28.2 µM [quencher, side channel, partial curve]
CC(C)(C)c1ccc(S(=O)(=O)NCC(=O)N2CCN(Cc3ccccc3)CC2)cc1 | inconclusive: 7.08 µM [fluorescent, side channel, full curve]
Oc1ccc(-c2nc3ccccn3c2NCc2ccc3c(c2)OCO3)cc1 | inactive
Cc1ccc(NC(=O)Cn2c(=O)n(Cc3ccco3)c(=O)c3ccccc32)c(C)c1 | inconclusive: 39.8 µM [fluorescent, side channel, single point]
Cc1ccc(NC(=O)c2oc3ccccc3c2NC(=O)c2ccc3c(c2)OCO3)cc1 | inconclusive: 7.94 µM [inhibitor, partial curve]
Cc1ccc2nc(NC(=O)c3ccccc3F)sc2c1 | inconclusive: 39.8 µM [inhibitor, single point]
Cc1ccc(-n2c(=O)c3ccc(C(=O)NCc4ccco4)cc3n(Cc3ccccc3C#N)c2=O)cc1 | inactive
COc1ccc(-c2nc(=S)c3ccc4ccccc4c3[nH]2)cc1 | inconclusive: 25.1 µM [quencher, side channel, partial curve]
Cc1ccc(NC(=O)c2ccc(=O)[nH]n2)cc1C | inconclusive: 44.7 µM [inhibitor, partial curve, poor fit]
CCN(CC)S(=O)(=O)c1ccc(C)c(C(=O)Oc2cccc(-c3cnc4ccccc4n3)c2)c1 | inconclusive: 22.4 µM [quencher, side channel, single point]
O=C(NCc1ccccc1)[C@]1(C(F)(F)F)C[C@H](CCCO)CCCO1 | inconclusive: 39.8 µM [inhibitor, single point]

Compound | Potency
Clc1cccc(N/N=C(\Cc2nc3ccccc3[nH]2)c2ccccc2)c1 | inconclusive: 8.91 µM [quencher, side channel, partial curve]
Cc1[nH]n(-c2ccc([N+](=O)[O-])cc2)c(=O)c1C=NCCN1CCN(C(=O)c2ccc(F)cc2)CC1 | inconclusive: 25.1 µM [quencher, side channel, single point]
CSc1nc(Sc2ccccc2Cl)c2ccccc2n1 | inactive
CCN1CCN(CCCNC(=O)c2ccc(/C=C3/Sc4ccccc4N(Cc4ccccc4F)C3=O)cc2)CC1 | inconclusive: 11.2 µM [fluorescent, side channel, partial curve]
O=C1CC(N(Cc2cccs2)C(=O)Nc2ccccc2)C(=O)N1c1ccc(Cl)cc1 (configuration not stated) | inconclusive: 22.4 µM [quencher, side channel, partial curve]
CC1=CC(C)(C)N(C(=O)CSc2nnc(C)s2)c2ccc(C)cc21 | inconclusive: 11.2 µM [fluorescent, side channel, partial curve]
CCOc1cc(Br)cc(/C=N/NC(=O)c2cccnc2)c1O | inconclusive: 14.1 µM [quencher, side channel, partial curve]
CC(C)N1CCC(N2CCN(C/C=C/c3ccccc3)CC2CCO)CC1 (configuration not stated) | inactive
O=C(Nc1ccc(S(=O)(=O)Nc2cnc3ccccc3n2)cc1)c1ccc([N+](=O)[O-])cc1Cl | inconclusive: 14.1 µM [quencher, side channel, partial curve]
CCN(CC)c1ccc(CNc2ccc3c(c2)ncn3CC)cc1 | inconclusive: 8.91 µM [inhibitor, partial curve, poor fit]
CCCN(CCC)C(=O)C1c2ccccc2Oc2ccccc21 | inconclusive: 11.2 µM [fluorescent, side channel, partial curve]
COc1ccc(OC)c(NC(=O)c2ccc(CN3CCOCC3)cc2)c1 | inactive
CCOCCCNC(=O)CN1C(=O)CSc2ccc(S(=O)(=O)N3CCOCC3)cc21 | inconclusive: 44.7 µM [inhibitor, partial curve, poor fit]
O=c1c(Cl)c(NCCO)ncn1-c1ccccc1 | inactive
Cc1nc2ccccc2c2oc(C(=O)NCCN3CCCCC3C)cc12 (configuration not stated) | inactive
COc1cc(/C=C/c2cc(C(=O)O)c3ccccc3n2)cc(OC)c1O | inconclusive: 39.8 µM [quencher, side channel, single point]
Cn1c(SCC(=O)n2c3c(c4ccccc42)CCCC3)nnc1-c1ccccc1 | inconclusive: 10 µM [fluorescent, side channel, partial curve]
O=C(Cn1c(O)c(/C=C2\C=Nc3ccccc32)sc1=O)Nc1ccc2c(c1)OCO2 | inconclusive: 3.98 µM [inhibitor, partial curve, poor fit]
COc1ccccc1-c1cc(C(=O)Nc2cc(C)nn2-c2ccccc2)no1 | inconclusive: 22.4 µM [inhibitor, partial curve]

Reference: PubChem BioAssay AID1768 (National Center for Advancing Translational Sciences (NCATS), 2009)
